# The supplement of paper PMC4967469
# IC50 is the fitted dose that halves viability relative to control wells, and lower means more sensitive; fits outside the tested doses are given as limits. For AUC the same curve is integrated over the 256-fold range of doses and scaled to a fraction: 1 means no effect, lower means more sensitive. For some assays here: Any top dose called inferred is not printed in the source and was worked back from the curve model. For some assays here: Where an entry number is given, a second screen of the drug exists; the two often differ.
# Assays:
# Assay in all cases: Viability of human cancer cell lines after 72 h of drug (GDSC screen)
# GSK690693 = compound: CCn1c(-c2nonc2N)nc2c(C#CC(C)(C)O)ncc(OC[C@H]3CCCNC3)c21 [GSK690693]; details: top dose 10.24 µM; top dose inferred
# Description: (§1)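 Human cancer cell lines in 384-well plates, medium with 10% serum, drug for 72 h over a 256-fold dose range (nine 2-fold or five 4-fold steps up to the top dose). Adherent lines were fixed and stained with the nucleic acid dye Syto60, suspension lines read with resazurin; signal relative to control wells, capped at 0 and 100%. One two-parameter sigmoid per drug and line, fitted in a mixed model over all curves with the slope shared within a line.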
# UNC0638 = compound: COc1cc2c(NC3CCN(C(C)C)CC3)nc(C3CCCCC3)nc2cc1OCCCN1CCCC1 [UNC0638]
# Description: as §1
# SB-505124 = compound: Cc1cccc(-c2[nH]c(C(C)(C)C)nc2-c2ccc3c(c2)OCO3)n1 [SB-505124]; details: top dose 10 µM; top dose inferred
# Description: as §1
# BX-795 = compound: O=C(NCCCNc1nc(Nc2cccc(NC(=O)N3CCCC3)c2)ncc1I)c1cccs1 [BX-795]; details: top dose 5 µM; top dose inferred
# Description: as §1
# PI-103 = compound: Oc1cccc(-c2nc(N3CCOCC3)c3oc4ncccc4c3n2)c1 [PI-103]; details: top dose 10.24 µM
# Description: as §1
# [1] = top dose 20 µM, screen: GDSC drug entry 1236, top dose inferred
# [2] = top dose 40 µM, screen: GDSC drug entry 245
Cell Line,AUC (GSK690693),IC50 (GSK690693),AUC (UNC0638; [1]),IC50 (UNC0638; [1]),AUC (UNC0638; [2]),IC50 (UNC0638; [2]),AUC (SB-505124),IC50 (SB-505124),AUC (BX-795),IC50 (BX-795),AUC (PI-103),IC50 (PI-103)
"786-0 (kidney, adherent)",0.606,1.22 µM,0.78,7.55 µM,0.638,5.79 µM,0.977,> 10 µM,0.895,> 5 µM,0.262,0.143 µM
"A172 (glioma, adherent)",0.989,> 10.2 µM,0.825,11.4 µM,0.783,16.1 µM,0.97,> 10 µM,0.833,3.05 µM,0.972,> 10.2 µM
"A427 (non-small cell lung carcinoma, adherent)",0.987,> 10.2 µM,0.817,11.4 µM,0.868,37.1 µM,0.964,> 10 µM,0.778,2.05 µM,0.971,> 10.2 µM
"A549 (lung adenocarcinoma, adherent)",,,0.973,> 20 µM,,,0.957,> 10 µM,0.744,1.74 µM,,
"A673 (rhabdomyosarcoma, adherent)",0.99,> 10.2 µM,0.522,1.43 µM,0.986,> 40 µM,0.92,> 10 µM,0.979,> 5 µM,0.732,2.69 µM
"BCPAP (thyroid, adherent)",0.987,> 10.2 µM,0.704,4.4 µM,0.655,6.41 µM,0.95,> 10 µM,0.804,,0.734,2.75 µM
"BHY (head and neck, adherent)",0.968,> 10.2 µM,0.948,> 20 µM,0.832,25.8 µM,0.971,> 10 µM,0.882,> 5 µM,0.558,0.924 µM
"BPH-1 (prostate, adherent)",0.814,6.36 µM,0.822,13.3 µM,0.697,9.52 µM,0.852,9.07 µM,0.792,2.54 µM,0.254,0.116 µM
"CAL-27 (head and neck, adherent)",0.983,> 10.2 µM,0.889,> 20 µM,0.856,33.2 µM,0.903,> 10 µM,0.873,4.97 µM,0.707,2.48 µM
"CAL-33 (head and neck, adherent)",0.935,> 10.2 µM,0.872,19 µM,0.965,> 40 µM,0.94,> 10 µM,0.841,3.48 µM,0.463,0.509 µM
"CAL-54 (kidney, adherent)",0.985,> 10.2 µM,0.983,> 20 µM,0.966,> 40 µM,0.907,> 10 µM,0.956,> 5 µM,0.956,> 10.2 µM
"CHP-134 (neuroblastoma, suspension)",0.926,> 10.2 µM,,,0.604,5.22 µM,,,0.756,2.13 µM,0.521,0.739 µM
"CHP-212 (neuroblastoma, adherent)",0.988,> 10.2 µM,0.937,> 20 µM,0.875,34.2 µM,0.987,> 10 µM,0.638,0.73 µM,0.936,> 10.2 µM
"ChaGo-K-1 (non-small cell lung carcinoma, adherent)",0.97,> 10.2 µM,0.881,> 20 µM,0.875,> 40 µM,0.974,> 10 µM,0.972,> 5 µM,0.944,> 10.2 µM
"DOK (head and neck, adherent)",0.957,> 10.2 µM,0.936,> 20 µM,0.975,> 40 µM,0.956,> 10 µM,0.8,4.02 µM,0.79,7.37 µM
"DU-145 (prostate, adherent)",0.985,> 10.2 µM,0.982,> 20 µM,0.93,> 40 µM,0.959,> 10 µM,0.984,> 5 µM,0.86,> 10.2 µM
"GAMG (glioma, adherent)",0.812,5.81 µM,0.928,> 20 µM,0.73,11.7 µM,0.969,> 10 µM,0.794,2.43 µM,0.286,0.153 µM
"H2591 (mesothelioma, adherent)",0.982,> 10.2 µM,0.822,16.6 µM,0.744,15.8 µM,0.98,> 10 µM,0.884,> 5 µM,0.972,> 10.2 µM
"HCC1806 (breast, adherent)",0.97,> 10.2 µM,0.816,9.99 µM,0.772,14.2 µM,0.988,> 10 µM,0.943,> 5 µM,0.96,> 10.2 µM
"HCT-116 (large intestine, adherent)",0.946,> 10.2 µM,0.793,8.59 µM,0.747,12.2 µM,0.971,> 10 µM,0.881,4.79 µM,0.488,0.594 µM
"HLE (liver, adherent)",0.987,> 10.2 µM,0.903,> 20 µM,0.787,16.3 µM,0.982,> 10 µM,0.876,4.49 µM,0.898,> 10.2 µM
"HeLa (cervix, adherent)",0.987,> 10.2 µM,0.971,> 20 µM,0.88,38.2 µM,0.903,> 10 µM,0.892,> 5 µM,,
